Values joined by “and” are separate entries in the source; they are usually repeats but may differ in a detail not shown here. Equal entries are not always repeated. About 16,000 (7.3%) of roughly 220,000 compounds were called active. Inconclusive results, whose numbers are uncertain, are shown with a selection of clear calls. Calls come from the whole dose curve; as a rule, active = well fitted inhibition curve with a large enough effect (not every such curve was filed as active); inconclusive = small, poorly fitted or top-dose-only effect, or another doubt; inactive = no such curve, though single readings can be large or run the other way. Potencies of inconclusive entries are left out as doubtful fits. Where a structure was tested more than once in an assay, its records may differ in their call.
biological target: Aldehyde dehydrogenase 1A1 (Homo sapiens) (UniProt P00352); assay: qHTS Assay for Inhibitors of Aldehyde Dehydrogenase 1 (ALDH1A1); details: Purified ALDH1A1, NADH fluorescence, propionaldehyde substrate; series mostly up to 75.3 µM;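 for activity, negative = inhibition: plate controls were no enzyme wells and a reference inhibitor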
Chain of UniProt P00352 (P00352 whole entry, looked up): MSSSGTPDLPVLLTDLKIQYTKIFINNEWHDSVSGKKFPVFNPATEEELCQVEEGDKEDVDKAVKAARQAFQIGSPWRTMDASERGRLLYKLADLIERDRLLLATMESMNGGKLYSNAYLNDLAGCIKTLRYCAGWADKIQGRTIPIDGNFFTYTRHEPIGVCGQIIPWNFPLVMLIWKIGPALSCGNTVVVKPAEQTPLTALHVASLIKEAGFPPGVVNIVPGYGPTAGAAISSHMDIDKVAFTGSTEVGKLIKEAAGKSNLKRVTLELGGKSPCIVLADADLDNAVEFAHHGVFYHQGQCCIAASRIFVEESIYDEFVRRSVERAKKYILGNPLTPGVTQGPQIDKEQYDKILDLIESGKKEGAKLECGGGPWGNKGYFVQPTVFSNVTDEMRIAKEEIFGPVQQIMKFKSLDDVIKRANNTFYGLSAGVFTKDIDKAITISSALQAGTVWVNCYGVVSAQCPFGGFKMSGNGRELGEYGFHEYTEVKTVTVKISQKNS
Potency is the fitted concentration of half-maximal effect; tags give direction and shape of the fitted curve.

**Q.** With Cc1ccccc1CS(=O)(=O)Cc1ccc(C(=O)NCc2ccco2)o1 as the compound, how does the Potency read?
**A.** inactive

**Q.** Which Potency does the source give for O=C(O)CCC(=O)Nc1ccc(NC(=O)c2ccc(Cl)cc2Cl)c(Cl)c1 here?
**A.** inactive

**Q.** With Cc1cc[n+](-c2[nH]c(=O)sc2/C=N/NC([S-])=Nc2ccccc2)cc1 as the compound, how does the Potency read?
**A.** active: 25.1 µM

**Q.** For COc1ccc(-c2cc(=O)c3cc(OC)c(OC)cc3[nH]2)cc1, which Potency is on record?
**A.** inconclusive [inhibitor, partial curve]

**Q.** COc1ccc(OCC(=O)N2CCN(C(=O)c3cccc(F)c3)CC2)cc1 was tested. Which Potency did it give?
**A.** inconclusive [inhibitor, partial curve]

**Q.** CCOC(=O)c1c(NC(=O)Cn2nnc(-c3ccc(Cl)cc3)n2)sc(CC)c1C was tested. Which Potency did it give?
**A.** inconclusive [inhibitor, single point]

**Q.** How did the Potency turn out when Cc1cc(Br)c2c(c1)=C(c1sc(N3CCCCCC3)nc1O)C(=O)N=2 was run?
**A.** inactive

**Q.** With O=C(Nc1cccnc1)c1ccccc1O as the compound, how does the Potency read?
**A.** inconclusive [inhibitor, partial curve]

**Q.** COC(=O)[C@@]1(Cc2ccc(OC)cc2)[C@H]2c3cc(C(=O)N4CCCC4)n(Cc4cc(C)n(C)n4)c3C[C@H]2CN1C(=O)c1ccccc1 was tested. Which Potency did it give?
**A.** inactive

**Q.** How did the activity, negative = inhibition turn out when COC(=O)C1=C(C)N(Cc2ccccc2)[C@]23O[C@](C(=O)OC)(C(=O)N2C1c1ccccc1)C(c1ccccc1)C3C(=O)c1ccccc1 (some centres not stated) was run?
**A.** inactive: 1.89% [at 13.5 µM] and inactive: 5.46% [at 13.5 µM]

**Q.** Which Potency does the source give for CCCC(C)C(=O)Nc1nc(C)c(-c2csc(Nc3cc(Cl)ccc3C)n2)s1 (configuration not stated) here?
**A.** inconclusive [inhibitor, single point]

**Q.** With Cc1noc(C)c1C(=O)N1CCC[C@@]2(CCN(Cc3ccccc3)C2)C1 as the compound, how does the Potency read?
**A.** inactive

**Q.** With Cc1cc(NC(=O)c2ccc3c(c2)C(=O)N(C)C3=O)no1 as the compound, how does the Potency read?
**A.** inconclusive [inhibitor, partial curve]

**Q.** Which Potency does the source give for Cc1nc2cnc(Oc3ccccc3)nc2n(CCc2ccccc2)c1=O here?
**A.** inconclusive [inhibitor, full curve]

**Q.** With Cc1ccnc(NC(=O)c2ccc(Cl)c([N+](=O)[O-])c2)c1 as the compound, how does the Potency read?
**A.** inactive

**Q.** CC(C)N(C)CCOC(=O)c1ccccc1Cl was tested. Which Potency did it give?
**A.** inactive

**Q.** Cc1nc2ccccc2c2c1C(=O)N(CCC1=CCCCC1)C2=O was tested. Which Potency did it give?
**A.** inconclusive [inhibitor, partial curve]

**Q.** C=CCN1C(=O)[C@]2(c3ccccc31)C1CCCC=C1C(C#N)=C(N)C2(C#N)C#N (some centres not stated) was tested. Which Potency did it give?
**A.** active: 3.98 µM

**Q.** How did the Potency turn out when Cn1cc([N+](=O)[O-])c(C(=O)Nc2ccc(C(=O)N3CCCCC3)cc2)n1 was run?
**A.** inactive

**Q.** With CCOc1ccc(S(=O)(=O)N2CCN(C(=O)c3cc4c(s3)CCCC4)CC2)cc1 as the compound, how does the Potency read?
**A.** inconclusive [inhibitor, partial curve]

**Q.** How did the Potency turn out when CC(=O)C1=C(C)NC(SCC(=O)c2ccc(Cl)c(Cl)c2)=C(C#N)C1c1ccco1 (configuration not stated) was run?
**A.** active: 2.82 µM

**Q.** With OC1c2ccccc2-c2nc3ccccc3cc21 (configuration not stated) as the compound, how does the Potency read?
**A.** inconclusive [inhibitor, single point]

**Q.** For CSc1nc2[nH]ncc2c(=O)[nH]1, which Potency is on record?
**A.** inactive

**Q.** CCN(CC(=O)Nc1ccc2c(c1)OCCO2)Cc1cc(=O)oc2c(C)c(C)ccc12 was tested. Which Potency did it give?
**A.** active: 15.8 µM

**Q.** For Cc1ccccc1NC(=O)c1csc2c1CCCC2, which Potency is on record?
**A.** inconclusive [inhibitor, single point]

**Q.** For Cc1cccc(NC(=O)c2sc3nc(-c4ccc(F)cc4)cn3c2C)n1, which Potency is on record?
**A.** inconclusive [inhibitor, partial curve]

**Q.** Which Potency does the source give for Cn1ccnc1SCC(=O)Nc1ccc(Cl)cn1 here?
**A.** inconclusive [inhibitor, single point]

**Q.** With CCC(CC)NC(=O)c1cc([N+](=O)[O-])ccc1N1CCOCC1 as the compound, how does the Potency read?
**A.** inconclusive [inhibitor, single point]

**Q.** How did the Potency turn out when CC(=O)NNC(=S)NC(=O)c1cccc([N+](=O)[O-])c1 was run?
**A.** active: 8.91 µM

**Q.** COc1ccc(Cn2nnnc2C(c2ccc3ncccc3c2)N2CCN(C3CCCCC3)CC2)cc1 (configuration not stated) was tested. Which Potency did it give?
**A.** inconclusive [inhibitor, single point]

**Q.** With O=C(CSc1ncccc1-c1nc2ccccc2[nH]1)N1CCc2ccccc21 as the compound, how does the Potency read?
**A.** inconclusive [inhibitor, partial curve]

**Q.** With Cc1cc(Cl)ccc1OC(C)C(=O)NCCCn1ccnc1 (configuration not stated) as the compound, how does the Potency read?
**A.** inactive

**Q.** With COc1cccc(OC)c1C(=O)N1CCN(Cc2ccncc2)CC1 as the compound, how does the Potency read?
**A.** active: 14.1 µM

**Q.** With COc1ccc(OC)c(C(=O)c2ccc(C(=O)O)cc2)c1 as the compound, how does the Potency read?
**A.** inactive

**Q.** O=C(CSCC(=O)N1CCCCC1)Nc1nc(-c2ccccc2)c(-c2ccccc2)s1 was tested. Which Potency did it give?
**A.** inconclusive [inhibitor, partial curve]

**Q.** How did the Potency turn out when CCOc1c2ccc(C(=O)NCc3ccc4c(c3)OCO4)cc2nn1CC was run?
**A.** inconclusive [inhibitor, partial curve]

**Q.** For CCCCOc1ccc(C(=O)N/C(=C/C=C/c2ccccc2)C(=O)NCCCO)cc1, which Potency is on record?
**A.** inconclusive [inhibitor, single point]

**Q.** With COC(c1ccccc1Br)C(C)/C=C/CCO (configuration not stated) as the compound, how does the Potency read?
**A.** active: 3.16 µM

**Q.** For Cc1ccccc1OCC(=O)N/N=C1\CCOc2c(C)cccc21, which Potency is on record?
**A.** inconclusive [inhibitor, single point]

**Q.** With Cc1ccc(N(Cc2cc3ccccc3[nH]c2=O)C(=O)c2ccco2)c(C)c1 as the compound, how does the Potency read?
**A.** inconclusive [inhibitor, single point]

**Q.** O=C(NCc1ccc2c(c1)OCO2)c1c(O)c2cccc3c2n(c1=O)CCC3 was tested. Which Potency did it give?
**A.** inconclusive [inhibitor, single point]

**Q.** Which Potency does the source give for CN(C)/C=C/C(=O)c1nn(-c2ccc(F)cc2)ccc1=O here?
**A.** inactive

**Q.** Cc1ccc(C)c(-n2c(-c3csc(C)c3C)n[nH]c2=S)c1 was tested. Which Potency did it give?
**A.** inactive

**Q.** For CC(C)OC(=O)C(=O)NNc1ccccc1, which Potency is on record?
**A.** inactive

**Q.** How did the Potency turn out when O=C(NC(=S)Nc1ccc(Cc2ccncc2)cc1)c1ccccc1Cl was run?
**A.** inconclusive [inhibitor, single point]

**Q.** CCOC(=O)CSC1=C(C#N)C(c2sccc2C)CC(=O)N1 (configuration not stated) was tested. Which Potency did it give?
**A.** inactive

**Q.** COc1ccc(C2(CNC(=O)c3ccco3)CCOCC2)cc1 was tested. Which Potency did it give?
**A.** inconclusive [inhibitor, partial curve]

**Q.** With COCCNC(=O)c1ccc(C)c(S(=O)(=O)Nc2ccc(C)cc2)c1 as the compound, how does the Potency read?
**A.** inactive

**Q.** For Cc1cc(Cl)ccc1Oc1nccc(N(C)C)c1C#N, which Potency is on record?
**A.** inactive

**Q.** With CCCCNC(=S)Nc1cccc2cnccc12 as the compound, how does the Potency read?
**A.** inconclusive [inhibitor, single point]

**Q.** Which Potency does the source give for O=C1C=C(c2ccc(Cl)cc2)OC2(CCCC2)O1 here?
**A.** inconclusive [inhibitor, partial curve]

**Q.** How did the Potency turn out when CCCn1nnc(NC(=O)c2ccc(-c3cc(Cl)ccc3Cl)o2)n1 was run?
**A.** inconclusive [inhibitor, single point]

**Q.** Which Potency does the source give for COc1ccc(/C=N/NC(=O)c2cccc([N+](=O)[O-])c2)cc1OC here?
**A.** inactive

**Q.** How did the Potency turn out when Cc1ccc(NC(=S)N(Cc2ccccc2)C(C)C)cc1 was run?
**A.** inactive

**Q.** With CC(C)C(c1nnnn1Cc1cccs1)N1CCN(C(=O)c2ccco2)CC1 (configuration not stated) as the compound, how does the Potency read?
**A.** inactive

**Q.** Which Potency does the source give for N#Cc1ccc(N=c2ssnc2Cl)cc1 here?
**A.** active: 1.58 µM

**Q.** For O=C(Nc1nccs1)c1cc(S(=O)(=O)N2CCOCC2)ccc1Cl, which Potency is on record?
**A.** inactive

**Q.** Which Potency does the source give for Cc1ccc(S(=O)(=O)N2CCN(C(=O)CSc3nc4ccccc4o3)C2)cc1 here?
**A.** inactive

**Q.** For CCCc1nnc(NC(=O)Cn2c(=O)oc3ccccc32)s1, which Potency is on record?
**A.** active: 10 µM

**Q.** N#CC(=C=[N-])c1nc2ccccc2nc1-[n+]1cccc(NC(=O)c2ccccc2)c1 was tested. Which Potency did it give?
**A.** active: 14.1 µM

**Q.** How did the Potency turn out when C=C(C)Cn1c(SCC#N)nc2ccccc2c1=O was run?
**A.** active: 10 µM

**Q.** How did the Potency turn out when COc1ccc(C2=NN(C(=O)c3cccs3)C(c3ccccc3O)C2)cc1 (configuration not stated) was run?
**A.** inconclusive [inhibitor, partial curve]

**Q.** How did the Potency turn out when CCn1c(=O)n(CC)c2cc(S(=O)(=O)N3CCC(c4ccccc4)CC3)ccc21 was run?
**A.** inconclusive [inhibitor, partial curve]

**Q.** O=C(NC1CCCCC1)N1CCC(n2cnc3ccccc32)CC1 was tested. Which Potency did it give?
**A.** inactive

**Q.** Which Potency does the source give for CCOc1ccc2[nH]c(=O)c(C(c3nnnn3C3CCCCC3)N3CCN(C)CC3)cc2c1 (configuration not stated) here?
**A.** inconclusive [inhibitor, partial curve]

**Q.** With N#CC1=C2SCC(O)(c3ccccc3)N2C(=O)CC1c1ccccc1 (configuration not stated) as the compound, how does the Potency read?
**A.** inconclusive [inhibitor, single point]

**Q.** With CSc1ccccc1-n1nnnc1SCC(=O)NCc1cccs1 as the compound, how does the Potency read?
**A.** active: 15.8 µM

**Q.** For O=C(NCc1ccccc1)C1=C[C@H](c2ccc(C(F)(F)F)cc2)C[C@H](OCc2ccc(CO)cc2)O1, which Potency is on record?
**A.** inactive

**Q.** Which activity, negative = inhibition does the source give for COC(=O)C1=C(C(=O)OC)[C@@H]2N(Cc3ccccc3)c3ccccc3[C@@]23C[C@@H](C(=O)OC)N(S(=O)(=O)c2c(C)noc2C)C3=N1 here?
**A.** inactive: 3.87% [at 13.5 µM]

**Q.** Cc1nonc1C(=O)N/N=C/c1ccc(O)cc1 was tested. Which Potency did it give?
**A.** inconclusive [inhibitor, single point]

**Q.** For Cc1c(O)ccc2c1OCO2, which activity, negative = inhibition is on record?
**A.** inactive: -1.93% [at 13.5 µM]

**Q.** With CCn1c(SCC(=O)Nc2ccc(OC)cc2)nc2nc3c(cc2c1=O)COC(C)(C)C3 as the compound, how does the Potency read?
**A.** active: 2 µM

**Q.** How did the Potency turn out when CN(CCc1ccc(Cl)c(Cl)c1)C[C@@H](O)COc1ccc(NS(C)(=O)=O)cc1 was run?
**A.** inactive

**Q.** How did the Potency turn out when COc1ccc(-c2nc(-c3ccccn3)no2)cc1 was run?
**A.** inactive

**Q.** How did the Potency turn out when O=S(=O)(c1cccc(Cl)c1Cl)N1CCN(C(=S)NCCCN2CCOCC2)CC1 was run?
**A.** inconclusive [inhibitor, single point]

**Q.** CCC(C)(C)n1nnnc1C(c1cc2cc(C)ccc2[nH]c1=O)N1CCCC1 (configuration not stated) was tested. Which Potency did it give?
**A.** inconclusive [inhibitor, single point]

**Q.** For COc1ccc(C2=NN(C(=O)c3cccs3)C(O)(C(F)(F)F)C2)cc1 (configuration not stated), which Potency is on record?
**A.** inconclusive [inhibitor, single point]

Reference: PubChem BioAssay AID1030 (National Center for Advancing Translational Sciences (NCATS), 2008)
